# Reference: PubChem BioAssay AID588855 (National Center for Advancing Translational Sciences (NCATS), 2011)
# The campaign covered roughly 410,000 compounds. About 5,000 (1.2%) were called active. Inconclusive means that the source gave no clear call. Such entries were picked first, then a sample of the others. Calls come from the whole dose curve; as a rule, active = well fitted inhibition curve with a large enough effect; inconclusive = small, poorly fitted or top-dose-only effect; inactive = no such curve, though single readings can be large or run the other way. Where the call is inconclusive, the potency comes from a doubtful curve fit.
# Assay: qHTS for Inhibitors of TGF-b; note: nearly all actives have a fitted effect of over 65% in size
# Conditions: HepG2 CAGA-GFP TGF-b/SMAD3 reporter, GFP fluorescence, 18 h, TGF-beta stimulated, 500 pg/mL final; series mostly up to 46.1 µM
# Method in brief: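 GFP signal (ex488/em500-530) from TGF-beta-stimulated HEPG2 CAGA-GFP cells, 500 pg/mL final, 18 h at 37 degrees C in DMEM plus 1% FBS, normalized to unstimulated and DMSO-stimulated controls.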
# Potency is the fitted concentration of half-maximal effect; tags give direction and shape of the fitted curve.
row,Structure (SMILES),Potency
1,CC(C)(C)S(=O)N1Cc2cc(C(=O)NCc3ccc(Oc4ccccc4)cc3)nc(-c3cccc(-c4cc5ccccc5o4)c3)c2[C@H]1CCO (stereo partly specified),"inconclusive: 31.6 µM [inhibitor, single point]"
2,O=C(N/N=C/c1ccnc2ccccc12)c1ccccc1O,"inconclusive: 15.8 µM [inhibitor, single point]"
3,COC(=O)c1cnc(Nc2nc(C(N)c3ccccc3Cl)cs2)nc1C(F)(F)F (stereo unspecified),active: 17.8 µM
4,COc1cccc(CN(C)CC(=O)Nc2cccc3ccccc23)c1,inactive
5,Cc1ccc(C(=O)N2CCc3cc(CNC(=O)c4ccnn4C)ccc32)cc1,inactive
6,COc1cc(/C=C/C(=O)N2CCc3ccccc3C2)cc(OC)c1OC,inactive
7,COC(=O)C1=C(C)NC2=C(C(=O)CCC2)C1c1cn(Cc2ccc(Cl)cc2Cl)nc1-c1ccccc1 (stereo unspecified),"inconclusive: 35.5 µM [inhibitor, single point]"
8,O=C(NCc1ccco1)C1Cc2c(-c3ccccc3Oc3ccccc3)ccnc2O1 (stereo unspecified),"inconclusive: 5.62 µM [inhibitor, single point]"
9,CCOC(=O)/C=c1\s/c(=C\c2ccc3c(c2)OCCO3)c(=O)n1CC(=O)NCC1CCCO1 (stereo unspecified),inactive
10,CC(=O)Nc1sc(C)c(C)c1C(=O)OCC(=O)Nc1cc(S(=O)(=O)N2CCCCC2)ccc1Cl,"inconclusive: 3.98 µM [inhibitor, single point]"
11,Cn1cccc1C(=O)NC(=O)COC(=O)CCNS(=O)(=O)c1ccc(Cl)cc1,inactive
12,N#Cc1ccc(-c2ccc(OCC(O)Cn3nnc4ccccc43)cc2)cc1 (stereo unspecified),inactive
13,Cc1ccc(C(=O)NC2CCN(CCCC(=O)c3ccc(F)cc3)CC2)cc1,inactive
14,CN(c1ccccc1)c1ccc(/C=C(\CCC(=O)O)c2nc3ccccc3s2)cc1[N+](=O)[O-],"inconclusive: 14.1 µM [inhibitor, single point]"
15,CCS(=O)(=O)N1CCN(c2cc3c(cc2[N+](=O)[O-])n(C)c(=O)n3C)CC1,"inconclusive: 0.631 µM [inhibitor, full curve, poor fit]"
16,CC(=O)c1sc(NC(=O)C2COc3ccccc3O2)nc1C (stereo unspecified),inactive
17,Cc1onc(-c2ccccc2)c1C(=O)Nc1nc(-c2ccc(F)c(F)c2)cs1,"inconclusive: 35.5 µM [inhibitor, single point]"
18,Cc1ccc(C)c(-n2c(SCC(=O)N3CCC(C(=O)O)CC3)nnc2-c2cccc(Cl)c2)c1,"inconclusive: 10 µM [inhibitor, partial curve, poor fit]"
19,COc1ccc(NC(=O)N2CCN(C(=O)c3ccco3)CC2)c(OC)c1,inactive
20,CCOC(=O)C1(Cc2cccc(OC)c2)CCN(Cc2cc(OC)ccc2OC)CC1,"inconclusive: 15.8 µM [inhibitor, partial curve, poor fit]"
21,O=C(Cc1ccc(Cl)cc1)Nc1ccc(C(=O)N2CCOCC2)cc1,inactive
22,Fc1cccc(Cl)c1C1Nc2cccc3cccc(c23)N1,"inconclusive: 10 µM [inhibitor, partial curve, poor fit]"

row,Structure (SMILES),Potency
1,Cc1nn(C)cc1S(=O)(=O)Nc1ncccn1,inactive
2,CSc1nc2ccc(Nc3nc(N4CCOCC4)nc(N4CCOCC4)n3)cc2s1,inactive
3,CC(C)C1C(=O)N(Cc2cn(CCC3OCCCO3)nn2)CCS(=O)(=O)N1Cc1ccc(-c2ccc(Cl)cc2)cc1 (stereo unspecified),inactive
4,Cc1ccc2[nH]c(C(=O)NN=C3CCCCC3)c(-c3ccccc3)c2c1,"inconclusive: 7.08 µM [inhibitor, partial curve, poor fit]"
5,Cc1ccn2c(Nc3c(C)cccc3C)c(-c3ccc(Cl)s3)nc2c1,"inconclusive: 35.5 µM [inhibitor, single point]"
6,Cc1nc(SCC(=O)c2ccc(F)c(F)c2)[nH]c(=O)c1Oc1ccc(Cl)cc1,"inconclusive: 15.8 µM [inhibitor, single point]"
7,Cc1cccc(NC(=S)N/N=C/c2ccc([N+](=O)[O-])s2)c1,active: 7.08 µM
8,CC1(C(=O)Nc2cccc3ncccc23)CCN1C(=O)CCc1ccccc1 (stereo unspecified),inactive
9,COC(=O)c1ccc2nc(-c3ccco3)c(Cc3cccc(F)c3)n2c1,active: 14.1 µM
10,COc1cc2c(C)nc3onc(-c4ccccc4)c3c2cc1OC,"inconclusive: 8.91 µM [inhibitor, partial curve, poor fit]"
11,CC1CCN(C(=O)CSc2nc3c(c(=O)n(C)c(=O)n3C)n2C)CC1,"inconclusive: 11.2 µM [inhibitor, single point]"
12,CCOC(=O)C1=C(C)OC(=Cc2ccccc2)C1=O,inactive
13,O=C(OCc1ccccc1)N1CCN(/[N+]([O-])=N/Oc2ccc([N+](=O)[O-])cc2[N+](=O)[O-])CC1,"inconclusive: 22.4 µM [inhibitor, single point]"
14,NC(COCc1ccccc1)c1csc(Nc2ccc(C(=O)c3ccccc3)cc2)n1 (stereo unspecified),"inconclusive: 35.5 µM [inhibitor, single point]"
15,CCOc1ccc(-n2c(Cc3ccccc3)nnc2SCc2nc(-c3cccs3)no2)cc1,"inconclusive: 17.8 µM [inhibitor, partial curve, poor fit]"
16,O=C(Nc1ccc(Br)cc1)c1ccc(Cl)c(S(=O)(=O)N2CCCCCC2)c1,inactive
17,COC(=O)c1ccc(S(=O)(=O)NNC(=O)c2ccc(S(=O)(=O)N3CCCCC3)cc2)cc1,"inconclusive: 15.8 µM [inhibitor, single point]"
18,CCn1c2c(c(=O)n3ncc(C(=O)Nc4ccc(F)cc4Cl)c13)CN(Cc1ccc(OC)cc1)CC2,"inconclusive: 15.8 µM [inhibitor, partial curve, poor fit]"
19,COc1ccc(C)cc1NS(=O)(=O)c1ccc(Cl)nc1,inactive
20,C=CC[n+]1c(-c2ccc(Cl)cc2Cl)csc1Nc1c(C)n(C)n(-c2ccccc2)c1=O,"inconclusive: 35.5 µM [inhibitor, single point]"
21,Cc1ccc(-c2nc(CSCC(=O)N3CCN(c4ccccn4)CC3)c(C)o2)cc1,"inconclusive: 1.26 µM [inhibitor, partial curve, poor fit]"
22,COc1ccc(CC(=O)Nc2nnc3n2CCS3)cc1,inactive

row,Structure (SMILES),Potency
1,CCC1CCCCN1C(=O)c1cccc(S(=O)(=O)Nc2cc(C(F)(F)F)ccc2Cl)c1 (stereo unspecified),"inconclusive: 28.2 µM [inhibitor, single point]"
2,Cc1cc2nc(C3CCN(CC4COc5ccccc5O4)CC3)[nH]c2cc1C (stereo unspecified),"inconclusive: 15.8 µM [inhibitor, single point]"
3,CC1(C(=O)NCCC#N)CCN1C(=O)CC(c1ccccc1)c1ccccc1 (stereo unspecified),inactive
4,S=C(NCc1ccccc1)Nc1ccc(Cl)cc1,"inconclusive: 17.8 µM [inhibitor, single point]"
5,Nc1ccc2cccc(O)c2c1,"inconclusive: 35.5 µM [inhibitor, single point]"
6,COc1ccccc1CNC(=O)CCc1c(C)nn(-c2ccc(N3CCCC3)nn2)c1C,"inconclusive: 7.94 µM [inhibitor, partial curve, poor fit]"
7,C[C@H](O)[C@@H]1CN2CCc3c([nH]c4ccc(-c5ccc6c(c5)OCO6)cc34)[C@@H]2C[C@@H]1N(C)C(=O)Nc1cc(Cl)cc(Cl)c1,"inconclusive: 22.4 µM [inhibitor, single point]"
8,Cc1ccc2nc(C3CCCCC3)c(Cc3ccccc3)n2c1,"inconclusive: 22.4 µM [inhibitor, single point]"
9,NS(=O)(=O)c1ccc(NC(=O)COC(=O)c2cnc(Cl)c(Cl)c2)cc1,inactive
10,O=C(Cc1ccc2c(c1)OCCO2)c1c(O)cc(O)cc1O,"inconclusive: 5.01 µM [inhibitor, full curve, poor fit]"
11,COc1cc(OC)cc(C(=O)N[C@H](C(=O)Nc2nc3c(s2)CCCC3)C(C)C)c1,"inconclusive: 12.6 µM [inhibitor, single point]"
12,Cc1cccn2c(=S)[nH]nc12,"inconclusive: 0.398 µM [inhibitor, partial curve, poor fit]"
13,COc1ccc(C(=O)OCC(=O)NCC2CCCO2)cc1 (stereo unspecified),"inconclusive: 5.62 µM [inhibitor, single point]"
14,COc1ccc(Cl)cc1NC(=O)Cn1c(=O)n(CCCC(=O)NCCc2ccc(OC)c(OC)c2)c(=O)c2ccccc21,"inconclusive: 0.562 µM [inhibitor, partial curve, poor fit]"
15,Cc1cnc(C(=O)NC2CC(C)(C)Cc3c2cnn3-c2cccc(F)c2)cn1 (stereo unspecified),inactive
16,Cc1ccc(S(=O)(=O)NCC(=O)N2CCN(c3ccc(F)cc3)CC2)cc1,"inconclusive: 20 µM [inhibitor, single point]"
17,CC(C)(C)S(=O)N1Cc2cc(C(=O)N3CCOCC3)nc(-c3cccc(Br)c3)c2[C@H]1CCO (stereo partly specified),"inconclusive: 31.6 µM [inhibitor, partial curve, poor fit]"
18,CNC1=C(N(C(C)=O)c2ccc(Br)cc2)C(=O)c2ccccc2C1=O,active: 3.55 µM
19,COc1cc(CN(C)Cc2cc(=O)oc3cc(C)c(Cl)cc23)ccc1OC(F)F,"inconclusive: 8.91 µM [inhibitor, partial curve, poor fit]"
20,Cc1ccc2cc(CN(C(=O)c3cccs3)c3ccccc3)c(=O)[nH]c2c1,inactive
21,O=C(c1ccc2c(c1)CCCC2)N1CCN(c2nc3ccc(F)cc3s2)CC1,"inconclusive: 3.16 µM [inhibitor, partial curve, poor fit]"
22,COc1cc(NC(=O)NC(C)c2c(-n3cccc3)sc3c2CCN(C)C3)cc(OC)c1 (stereo unspecified),"inconclusive: 35.5 µM [inhibitor, single point]"
